Measured values: paper PMC4336329 (PLoS ONE, 2015)
Among all 310,000 compounds or so, about 14,000 (4.5%) showed an effect of 50% or more. The effect is printed as a negative number. The list shows a part of the results.

Target: human ether-à-go-go-related gene (hERG) potassium channel (human, UniProt Q12809)
Test: primary screen, population patch clamp on CHO cells stably expressing hERG
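Note: peak tail current of the secondary pulse compared with the same well before compound.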

Chain of human ether-à-go-go-related gene (hERG) potassium channel (Q12809 whole entry, looked up): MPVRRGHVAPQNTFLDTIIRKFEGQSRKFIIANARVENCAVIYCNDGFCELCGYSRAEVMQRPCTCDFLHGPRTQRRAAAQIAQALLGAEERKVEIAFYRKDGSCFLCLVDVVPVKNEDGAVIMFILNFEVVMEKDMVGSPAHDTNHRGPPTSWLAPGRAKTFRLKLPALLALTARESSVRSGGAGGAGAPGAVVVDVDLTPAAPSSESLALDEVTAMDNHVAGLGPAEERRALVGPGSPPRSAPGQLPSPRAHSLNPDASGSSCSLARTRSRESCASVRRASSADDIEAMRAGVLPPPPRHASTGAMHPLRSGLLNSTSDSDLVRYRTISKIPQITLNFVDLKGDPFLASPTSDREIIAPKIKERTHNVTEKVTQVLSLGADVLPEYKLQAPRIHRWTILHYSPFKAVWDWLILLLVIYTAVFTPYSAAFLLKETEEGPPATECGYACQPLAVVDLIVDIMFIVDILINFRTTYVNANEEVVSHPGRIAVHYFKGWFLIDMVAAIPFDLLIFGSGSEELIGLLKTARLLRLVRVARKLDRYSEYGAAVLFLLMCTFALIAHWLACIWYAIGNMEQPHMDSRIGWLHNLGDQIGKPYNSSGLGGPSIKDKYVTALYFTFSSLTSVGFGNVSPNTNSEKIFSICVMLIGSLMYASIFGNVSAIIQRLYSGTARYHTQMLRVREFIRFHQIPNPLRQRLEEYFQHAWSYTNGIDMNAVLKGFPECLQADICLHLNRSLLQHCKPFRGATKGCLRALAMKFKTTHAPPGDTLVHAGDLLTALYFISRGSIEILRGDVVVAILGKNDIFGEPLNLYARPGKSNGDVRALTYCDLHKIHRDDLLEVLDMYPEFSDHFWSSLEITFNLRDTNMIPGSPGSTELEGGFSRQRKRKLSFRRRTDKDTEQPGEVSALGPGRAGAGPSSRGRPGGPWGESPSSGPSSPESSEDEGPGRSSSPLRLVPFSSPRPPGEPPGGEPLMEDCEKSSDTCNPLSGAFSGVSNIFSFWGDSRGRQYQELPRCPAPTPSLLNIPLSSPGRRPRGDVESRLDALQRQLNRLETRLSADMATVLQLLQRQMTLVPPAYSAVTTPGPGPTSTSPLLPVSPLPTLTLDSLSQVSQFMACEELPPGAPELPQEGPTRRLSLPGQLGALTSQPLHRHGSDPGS

| SMILES | hERG current change (%, negative = inhibition) at 10uM [%] |
| --- | --- |
| O=C(c1ccc(Cl)c(S(=O)(=O)N2CCCCC2)c1)N1CCCCCC1 | -39.2 |
| CCOC(=O)c1c(C#N)c(SCC(=O)Nc2ccc(OC)cc2)nc2c1CN(CC)CC2 | -8.78 |
| Cc1ccc(N2C(=O)c3ccccc3C2=O)cc1Cl | -41.5 |
| CC(=O)c1cccc(NC(=O)CN2CCN(S(=O)(=O)/C=C/c3ccccc3)CC2)c1 | -53.9 |
| CCOC(=O)c1c(NC(=O)c2cccc(N3C(=O)CCC3=O)c2)sc2c1CCN(CC)C2.Cl | -31.5 |
| O=C(CCN1CCN(Cc2ccccc2)CC1)NNC(=O)Nc1cccc(Cl)c1 | -47 |
| O=C(Nc1nc2ccccc2[nH]1)c1ccc(Cl)c(S(=O)(=O)N2CCCC2)c1 | -9.28 |
| CCCCCCNc1nc(OC)nc(N2CC3CC(C2)c2cccc(=O)n2C3)n1 (centres unmarked) | -27.9 |
| Cc1cc(C)n2nc(SCC(=O)Nc3ccccc3F)nc2n1 | -20.1 |
| CCOC(=O)C1(Cc2ccccc2)CCCN(Cc2ccc(OCCO)cc2)C1 (centres unmarked) | -1.04 |
| O=C(c1ccc(=O)oc1)N1CCCc2ccccc21 | -0.216 |
| Cc1ccc(-c2csc(NC(=O)c3ccc(Br)cc3)c2C(=O)O)cc1 | 46.9 |
| CCCNC(=O)C(CC)NC(=O)c1cccc([N+](=O)[O-])c1 (centres unmarked) | 14.3 |
| CCC(=O)NC(c1cccc([N+](=O)[O-])c1)c1c(O)ccc2ccccc12 (centres unmarked) | 18.2 |
| CCOc1ccc(C(C)=O)cc1COC(=O)CNC(=O)c1cccs1 | -8.49 |
| CC(C)CCn1c(Oc2ccccc2Cl)nc2c1c(=O)n(C)c(=O)n2C | -17.8 |
| O=[N+]([O-])c1cccc(-c2ncc3ccccn23)c1 | -24.5 |
| CC(=O)Nc1ccc(NC(=O)CSc2nnc3ccc(-c4ccc(F)cc4)nn23)cc1 | 16.8 |
| S=C(c1cn(CCOc2ccccc2)c2ccccc12)N1CCCC1 | 10.6 |
| COc1ccc(-n2nc(C(=O)NCC(=O)NCc3ccco3)c3ccccc3c2=O)cc1Cl | -6.17 |
| CCOc1cc(S(=O)(=O)N2CC=C(c3ccc(F)cc3)CC2)c(OCC)cc1-n1cnnn1 | -33.8 |
| Cc1cc(C)n(-c2ccc(C(=O)OCC(=O)Nc3ccc(Cl)c(S(=O)(=O)N(C)C)c3)cc2)n1 | -16.6 |

| SMILES | hERG current change (%, negative = inhibition) at 10uM [%] |
| --- | --- |
| Cc1cccc(C(=O)O)c1[N+](=O)[O-] | 13.4 |
| COc1ccc(C2=NN(C(=O)/C=C/c3ccccc3)C(c3ccccc3)C2)c(OC(C)=O)c1 (centres unmarked) | -9.5 |
| CC1CCCC(N2CCN(C(=O)c3ccccc3F)CC2)C1 (centres unmarked) | -11.5 |
| C#CCn1c(=NC(=O)c2cccs2)sc2cccc(OC)c21 | 18.3 |
| CCc1cc2c(=O)n(CC(=O)NCCc3ccc(OC)c(OC)c3)cnc2s1 | 23.7 |
| CC1=NOC2(C1)N(C)c1ccccc1C2(C)C (centres unmarked) | 4.94 |
| COc1ccc(C(=O)Cc2cc(OC)c(OC)cc2[N+](=O)[O-])cc1 | 17 |
| Cc1ccc(OCC(=O)N/N=C/c2cn[nH]c2-c2ccc(Cl)c(Cl)c2)cc1 | 12.2 |
| CC(C)COc1ccc(Br)cc1CNC(C)(C)C.Cl | -41.8 |
| CCN(CC)c1nc2c(c(=O)n(C)c(=O)n2C)n1CCCc1ccccc1 | -3.09 |
| FC(F)(F)c1ccccc1-c1nc(-c2ccncc2)no1 | -0.794 |
| Cc1cc(NS(=O)(=O)c2ccccc2)n(-c2ccccc2)n1 | -1.45 |
| Oc1cccc(/C=N/N(Cc2ccccc2)c2ccccc2)c1 | 1.46 |
| CCCC(c1nnnn1C1CCCCC1)N1CCN(C2CCCC2)CC1.Cl (centres unmarked) | -46.4 |
| Cc1ccc(CNC(=O)Nc2ccc3c(c2)N(C)C(=O)CS3)cc1 | -9.48 |
| CCOc1ccc(N2C(=O)/C(=C/c3ccccc3)N=C2SC)cc1 | 11.3 |
| Cc1cccc(Nc2nnc(SCC(=O)c3c(N)n(C4CC4)c(=O)[nH]c3=O)s2)c1 | 16.9 |
| O=C(Nc1ccccc1)c1ccccc1OS(=O)(=O)c1ccccc1 | 5.99 |
| COc1cc(/C=C(\C#N)c2ccccn2)ccc1OCC(=O)Nc1c(Cl)cccc1Cl.Cl | 9.49 |
| CCOc1ccccc1NC(=O)Nc1ccc(CC#N)cc1 | 3.28 |
| COc1cc(-c2ccccc2)[nH]c(=S)n1 | 22.3 |
| CCOc1ccccc1OCC(=O)Nc1cc2c(cc1C(=O)O)OCCCO2 | 5.71 |

| SMILES | hERG current change (%, negative = inhibition) at 10uM [%] |
| --- | --- |
| Oc1ccccc1/C=N/NC(=S)NC1CC2CC1C1C=CCC21 (centres unmarked) | 27.3 |
| O=C1CCCC/C1=N\Nc1ccc(C2CCCCC2)cc1 | 12.8 |
| CCCc1cnc(N2CCN(C(=S)NC)CC2)nc1 | -35.6 |
| COc1ccc(C(=O)CSc2nc3ccc([N+](=O)[O-])cc3[nH]2)cc1 | 2.18 |
| Cc1ccc(N(CC(=O)NC2CCCCC2C)S(=O)(=O)c2c(C)noc2C)cc1 (centres unmarked) | 6.65 |
| COc1cccc(CC2(CO)CCCN(Cc3[nH]c4ccc(C)cc4c3C)C2)c1 (centres unmarked) | -74.7 |
| Cc1ccccc1-c1nnc(SCC(=O)Nc2ccc(Cl)cc2)n1N | 10.7 |
| CC(C)(C)C(=O)OC[N+](C)(C)CCOC(=O)C(O)(c1ccccc1)C1CCCC1.[Cl-] (centres unmarked) | -9.56 |
| CCOC(=O)Cc1csc(NC(=O)Cn2c(=O)oc3ccccc32)n1 | 6.92 |
| Cc1cc(C(=O)Nc2c(C)n(C)n(-c3ccccc3)c2=O)c2ccccc2n1 | -7.61 |
| CCCCc1nnc(NC(=O)CSc2nc(=O)cc(N)n2-c2cccc(C)c2)s1 | 6.3 |
| CCOc1ccc(CN2CCN(C/C=C/c3ccc(OC)cc3)CC2CCO)cc1 (centres unmarked) | -88.7 |
| CC(=O)Nc1cccc2ncccc12 | 4.23 |
| O=C(Nc1cccc(-c2nc3ccccc3o2)c1)c1ccc(N2C(=O)C3C4C=CC(C4)C3C2=O)cc1 (centres unmarked) | -0.101 |
| Cc1ccc(C(O)CCc2ccc(N)cc2)cc1 (centres unmarked) | 9.51 |
| O=C(CSc1nc(-c2ccccc2)cc(C(F)(F)F)n1)NCc1ccco1 | 6.86 |
| Cc1cc(OCC(=O)N2C[C@H]3C[C@@H](C2)c2cccc(=O)n2C3)c2c(C)cc(=O)oc2c1 | 10.3 |
| O=C(COc1ccc(C(=O)NCCc2ccccc2)cc1)Nc1ccccc1 | 7.64 |
| Cc1csc(SCC(=O)Nc2sc3c(c2C#N)CCC3)n1 | 12.1 |
| CCn1nc(C)c(CN2CCC(n3nccc3NC(=O)Cc3ccccc3)CC2)c1C | 6.57 |
| CCOC(=O)c1nnn(CC(=O)N2N=C(c3ccccc3)CC2c2ccccc2)c1C(=O)OCC (centres unmarked) | 9.49 |
| O=C(NN=C(c1ccccc1)c1ccccc1)C(CCl)C1CCCCC1 (centres unmarked) | -2.74 |

| SMILES | hERG current change (%, negative = inhibition) at 10uM [%] |
| --- | --- |
| CCC(=O)N/C(=N\OCc1ccc(F)cc1)c1nonc1NC(=O)CC | 9.02 |
| O=C(NC(=O)c1cc[nH+]cc1)NC(c1ccccc1)c1ccccc1.[Cl-] | 0.971 |
| CCOC(=O)c1[nH]c2ccccc2c1NC(=O)CC | 3.15 |
| Cc1ccc(NC(=O)CN(c2cc(C)cc(C)c2)S(=O)(=O)c2c(C)noc2C)nc1 | -40.3 |
| COc1ccccc1Nc1nc(NCCO)nc(N2CCCC2)n1 | -2.85 |
| COc1ccc(S(=O)(=O)NNC(=O)C23CC4CC(CC(C4)C2)C3)cc1 | -2.12 |
| Fc1ccccc1NC(=S)N(CCN1CCCCC1)Cc1ccco1 | -51.2 |
| COCCn1nnnc1C(c1ccc(Cl)cc1)N1CCSCC1.Cl (centres unmarked) | -51.9 |
| COCc1cccc(N2C(=O)CC(C3C=C(C)C4C(=O)N(c5cccc(COC)c5)C(=O)C4C3)C2=O)c1 (centres unmarked) | -12.7 |
| O=C(CCSc1nnc(-c2ccncc2)o1)Nc1ccc(F)cc1 | -16.4 |
| CCOC(=O)N1CCN(C(=O)COc2ccc3ccccc3c2Br)CC1 | -27.9 |
| CCCN(C(=O)COC(=O)CCOc1ccc(C)cc1)c1c(N)n(Cc2ccccc2)c(=O)[nH]c1=O | -19.2 |
| C=C1CC2C3CC[C@@]4(OCOC45COCO5)[C@@]3(C)C(O)CC2[C@@]2(C)CCC(=O)C=C12 (some centres unmarked) | 12.3 |
| COC(=O)c1ccccc1NC(=O)N1c2ccccc2Sc2ccccc21 | 1.39 |
| CN1OC[C@@H]2COc3ccc4ccccc4c3[C@@H]21 | 18 |
| CCOc1ccc(CNS(=O)(=O)c2c(C)nc3scc(C)n3c2=O)cc1OC | 8.99 |
| COCCNC(=O)Cn1cc(/C=C(\C#N)C(=O)NC2CCCC2)c2ccccc21 | 14.4 |
| Cc1nn(-c2ccccc2)c2[nH]c(=O)c(CNCCN3CCOCC3)cc12 | -11.4 |
| Oc1cccc(C=NCc2ccccc2)c1O | -3.91 |
| CN(CC(=O)Nc1cccc(F)c1)C(=O)c1cn(-c2ccccc2)nc1-c1ccc(F)cc1 | -4.57 |
